Assay results published in the GPR68 mutational scans of Howard et al. (2025).
Scores whose standard error is large were omitted. Two further conditions of the source, in which the scores hardly spread, are not listed. Read del as a deletion of the residues named and ins as an insertion between two positions. For part of these data: How much ogerin was present is not stated here.

B1: GPR68, Q15743 (parent)
chain: MGNITADNSSMSCTIDHTIHQTLAPVVYVTVLVVGFPANCLSLYFGYLQIKARNELGVYLCNLTVADLFYICSLPFWLQYVLQHDNWSHGDLSCQVCGILLYENIYISVGFLCCISVDRYLAVAHPFRFHQFRTLKAAVGVSVVIWAKELLTSIYFLMHEEVIEDENQHRVCFEHYPIQAWQRAINYYRFLVGFLFPICLLLASYQGILRAVRRSHGTQKSRKDQIQRLVLSTVVIFLACFLPYHVLLLVRSVWEASCDFAKGVFNAYHFSLLLTSFNCVADPVLYCFVSETTHRDLARLRGACLAFLTCSRTGRAREAYPLGAPEASGKSGAQGEEPELLTKLHPAFQTPNSPGSGGFPTGRLA

Key:
[1] = variants of: B1; test: cAMP reporter score (Enrich2 score, wild type = 0); higher = more signal; HEK293T, FACS bins
[2] = variants of: B1; test: surface expression score (Enrich2 score, wild type = 0); higher = more signal; HEK293T, FACS bins

Row | Variant | cAMP reporter score ([1]; pH 5.5) | cAMP reporter score ([1]; pH 6, modulator: ogerin) | cAMP reporter score ([1]; pH 6.5, modulator: ogerin) | cAMP reporter score ([1]; pH 6) | surface expression score [2]
1 | MGNITADNSSMSCTIDHTIHQTLAPVVYVTVLVVGFPANCLSLYFNYLQIKARNELGVYLCNLTVADLFYICSLPFWLQYVLQHDNWSHGDLSCQVCGILLYENIYISVGFLCCISVDRYLAVAHPFRFHQFRTLKAAVGVSVVIWAKELLTSIYFLMHEEVIEDENQHRVCFEHYPIQAWQRAINYYRFLVGFLFPICLLLASYQGILRAVRRSHGTQKSRKDQIQRLVLSTVVIFLACFLPYHVLLLVRSVWEASCDFAKGVFNAYHFSLLLTSFNCVADPVLYCFVSETTHRDLARLRGACLAFLTCSRTGRAREAYPLGAPEASGKSGAQGEEPELLTKLHPAFQTPNSPGSGGFPTGRLA [G46N] | 0.098 | 0.556 | 0.655 |  | 
2 | MGNITADNSSMSCTIDHTIHQTLAPVVYVTVLVVGFPANCLSLYFRYLQIKARNELGVYLCNLTVADLFYICSLPFWLQYVLQHDNWSHGDLSCQVCGILLYENIYISVGFLCCISVDRYLAVAHPFRFHQFRTLKAAVGVSVVIWAKELLTSIYFLMHEEVIEDENQHRVCFEHYPIQAWQRAINYYRFLVGFLFPICLLLASYQGILRAVRRSHGTQKSRKDQIQRLVLSTVVIFLACFLPYHVLLLVRSVWEASCDFAKGVFNAYHFSLLLTSFNCVADPVLYCFVSETTHRDLARLRGACLAFLTCSRTGRAREAYPLGAPEASGKSGAQGEEPELLTKLHPAFQTPNSPGSGGFPTGRLA [G46R] | -2.84 | -1.62 | -1.64 | -1.53 | -2.56
3 | MGNITADNSSMSCTIDHTIHQTLAPVVYVTVLVVGFPANCLSLYFPYLQIKARNELGVYLCNLTVADLFYICSLPFWLQYVLQHDNWSHGDLSCQVCGILLYENIYISVGFLCCISVDRYLAVAHPFRFHQFRTLKAAVGVSVVIWAKELLTSIYFLMHEEVIEDENQHRVCFEHYPIQAWQRAINYYRFLVGFLFPICLLLASYQGILRAVRRSHGTQKSRKDQIQRLVLSTVVIFLACFLPYHVLLLVRSVWEASCDFAKGVFNAYHFSLLLTSFNCVADPVLYCFVSETTHRDLARLRGACLAFLTCSRTGRAREAYPLGAPEASGKSGAQGEEPELLTKLHPAFQTPNSPGSGGFPTGRLA [G46P] | -1.49 | -2.15 | -1.2 | -1.35 | -2.38
4 | MGNITADNSSMSCTIDHTIHQTLAPVVYVTVLVVGFPANCLSLYFQYLQIKARNELGVYLCNLTVADLFYICSLPFWLQYVLQHDNWSHGDLSCQVCGILLYENIYISVGFLCCISVDRYLAVAHPFRFHQFRTLKAAVGVSVVIWAKELLTSIYFLMHEEVIEDENQHRVCFEHYPIQAWQRAINYYRFLVGFLFPICLLLASYQGILRAVRRSHGTQKSRKDQIQRLVLSTVVIFLACFLPYHVLLLVRSVWEASCDFAKGVFNAYHFSLLLTSFNCVADPVLYCFVSETTHRDLARLRGACLAFLTCSRTGRAREAYPLGAPEASGKSGAQGEEPELLTKLHPAFQTPNSPGSGGFPTGRLA [G46Q] | -0.456 | -1.12 | -0.631 | -0.287 | -1.45
